# Data published in the supplement of paper PMC10126150.
# Values marked as one replicate rest on one cluster of the flow cell; about a third of the high ones do not repeat.
# Tested on: ATP
# Test: switch fluorescence ratio, 500 uM ATP over buffer (Cy3 cluster intensity, sum of 5 cycles each) (fold (ratio)); higher = stronger signal-on switching upon ATP binding; sequences stand for … in TCGTCGGCAGCGTCAGATGTGTATAAGAGACAGTTTTTTTTTTTTTTTTTTTTTTTTT…TC
# Conditions: aptamer strand: ATP DNA aptamer (quencher-CACCTGGGGGAGTATTGCGGAGGAAGG + anchor), 100 nM annealed; ATP concentration: 500 uM; one replicate
# In short: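 Five buffer/ATP imaging cycles were run on Cy3-labelled switching-strand clusters on a modified Illumina MiSeq flow-cell, with NaOH stripping and re-annealing between cycles. In each cycle, clusters annealed to 100 nM quencher-labelled ATP aptamer were imaged in selection buffer, then after 15 min with 500 uM ATP at 22 °C. Per cluster, the fluorescence ratio is summed target-cycle over summed buffer-cycle Cy3 intensity, averaged per switch-domain sequence. Only clusters within 100-1000 RFU were kept.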
# 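Further: ATP exposure 15 min at 22 °C before imaging.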
row,Sequence,switch fluorescence ratio
1,CACGCGTTAT,1.02
2,CACGGAGGGT,1.11
3,CACGGCAACC,1.77
4,CACGGCTGTA,1.03
5,CACGGCTTGA,0.935
6,CACGGGAGGG,1.04
7,CACGGGATT,1.02
8,CACGGGCTAG,1.01
9,CACGGTTGCT,0.994
10,CACGTAGCAC,3.22
11,CACGTATTAA,1.13
12,CACGTATTGT,1.2
13,CACGTCATGT,1.12
14,CACGTCTGTA,1
15,CACGTGACTG,1.11
16,CACGTGGGAC,1.11
17,CACGTTAGCA,1.08
18,CACGTTGCCG,1.04
19,CACGTTTTAA,1.04
20,CACTAACTCG,1.1
21,CACTACAGTG,1.02
22,CACTACCTCT,1.11
23,CACTACTTAA,1.04
24,CACTAGACTC,1.12
25,CACTATACCA,1.43
26,CACTATTATT,0.945

row,Sequence,switch fluorescence ratio
1,CACTATTTAC,1.1
2,CACTCACGTC,1.43
3,CACTCAGACT,1.03
4,CACTCGTCGT,1
5,CACTGAAATG,1.01
6,CACTGAACGG,2.06
7,CACTGAAGTA,0.983
8,CACTGACGCT,1.29
9,CACTGAGACG,1.05
10,CACTGGATTG,1
11,CACTGGGGCG,1.03
12,CACTGTACCC,1.41
13,CACTTAGAA,1.01
14,CACTTAGTGA,0.994
15,CACTTGATGA,1.03
16,CACTTGGCGC,0.945
17,CACTTTTTC,1
18,CAGAAAACGC,1.47
19,CAGAAACAGC,1.05
20,CAGAACGACG,1.02
21,CAGAACGGGT,1
22,CAGAATTCGG,0.949
23,CAGAATTGGT,1.02
24,CAGACGCTTG,1.01
25,CAGACGGGTA,1.05
26,CAGACTTCCG,1.05

row,Sequence,switch fluorescence ratio
1,CAGACTTGTC,0.987
2,CAGAGACGTT,1.05
3,CAGAGAGAGA,1.03
4,CAGAGATATG,1.06
5,CAGAGCGGAC,2.24
6,CAGAGGAAGA,1.01
7,CAGAGGCCCT,1.06
8,CAGAGGCTGC,1.12
9,CAGAGGTTGA,1.05
10,CAGAGTGAT,1.46
11,CAGATAGGAC,0.995
12,CAGATATATT,0.998
13,CAGATCATTA,0.966
14,CAGATTAACG,1.04
15,CAGATTCGGT,0.993
16,CAGATTGGAC,0.975
17,CAGATTGTAG,0.98
18,CAGCAACCAT,1.04
19,CAGCAATGAG,1.83
20,CAGCACCCTG,1.04
21,CAGCATCGGA,0.999
22,CAGCATGCTT,1.01
23,CAGCCAACTT,1.02
24,CAGCCATGAC,1.12
25,CAGCCGCGTT,2.24
26,CAGCCTAGTT,1

row,Sequence,switch fluorescence ratio
1,CAGCCTGGAA,1.07
2,CAGCGAAAAA,0.983
3,CAGCGAACGT,0.98
4,CAGCGAAGAT,0.992
5,CAGCGATCCA,1.03
6,CAGCGATTAG,1.08
7,CAGCGTAGTA,1.01
8,CAGCGTTAAT,1.03
9,CAGCTAACCT,1.8
10,CAGCTAGGGA,0.961
11,CAGCTCGGGC,1.03
12,CAGCTCTAAC,1.12
13,CAGCTCTGCC,1.02
14,CAGCTGATCG,1.01
15,CAGGAAAATC,1.02
16,CAGGAAACCA,1.09
17,CAGGAAAGTG,0.957
18,CAGGAACGGG,0.98
19,CAGGAACGGT,0.956
20,CAGGAAGCCC,1.03
21,CAGGAAGGA,1.02
22,CAGGAATGCA,0.984
23,CAGGAATGGT,0.996
24,CAGGACAACC,1.06
25,CAGGACCTCA,1.06
26,CAGGACGATT,0.991

row,Sequence,switch fluorescence ratio
1,CAGGACTAGT,1
2,CAGGAGATCA,1.04
3,CAGGAGGCCA,1.03
4,CAGGAGTGCA,1.01
5,CAGGATACGG,0.932
6,CAGGCACGAC,1.05
7,CAGGCACGGG,1.01
8,CAGGCCCATG,0.979
9,CAGGCCGCTG,1.08
10,CAGGCGGTA,1.02
11,CAGGCGTGTC,1
12,CAGGCTGCTG,0.993
13,CAGGCTTGGC,0.963
14,CAGGGACTA,1.01
15,CAGGGATAGC,1.06
16,CAGGGCCCAT,1
17,CAGGGGAACG,1.02
18,CAGGGGAATT,1.02
19,CAGGGGACAG,1.04
20,CAGGGGATTT,0.993
21,CAGGGGCGAG,0.974
22,CAGGGGTCTT,1.37
23,CAGGGTACCA,0.95
24,CAGGGTGTAC,1.06
25,CAGGGTGTTA,0.993
26,CAGGTATCGA,0.998

row,Sequence,switch fluorescence ratio
1,CAGGTATGAT,1.01
2,CAGGTCAAGC,1.02
3,CAGGTCGATC,1
4,CAGGTCGCAT,1.06
5,CAGGTCGCCG,0.954
6,CAGGTGGATT,1.54
7,CAGGTGGCGA,1.13
8,CAGGTGTAGT,1.23
9,CAGGTTATAA,0.987
10,CAGGTTGATA,0.998
11,CAGGTTTCGA,0.955
12,CAGGTTTGCA,0.988
13,CAGTAACCTG,1.03
14,CAGTACGAAG,1.06
15,CAGTACTATT,1.01
16,CAGTACTTT,1.02
17,CAGTAGCCCT,1.06
18,CAGTAGTCTC,1.06
19,CAGTATACGT,1.03
20,CAGTATATGA,0.992
21,CAGTATATGT,0.949
22,CAGTATGGAC,1.02
23,CAGTCAAATC,1.11
